Data on 17 compounds can be found in patent US20210047304A1, “Bromodomain Inhibitors” (AbbVie Inc., priority 2016, published 2021).

In general, Ki refers to a dissociation constant, usually derived from enzyme kinetics or from competition with a known ligand. Low readings indicate a stronger hold on the target, high ones a looser hold on the target.

The test addresses BRD4 (BDII_E352-M457) (Homo sapiens, UniProt O60885). In words: TR-FRET bromodomain binding assay, BRD4 BDII. A general note: In TR-FRET formats the signal depends on donor and acceptor labels being close together.

`Cc1cc(F)cc(C)c1Oc1ccc(C(C)(C)O)cc1-c1cn(C)c(=O)cc1O[C@H]1CC[C@H](N2CCCS2(=O)=O)CC1` [Example 52, 2-[trans-4-({5-[2-(4-fluoro-2,6-dimethylphenoxy)-5-(2-hydroxypropan-2-yl)phenyl]-1-methyl-2-oxo-1,2-dihydropyridin-4-yl}oxy)cyclohexyl]-1lambda^6,2-thiazolidine-1,1-dione] registered an inhibition constant Ki of 2.47 nM. As to `Cc1cc(F)cc(C)c1Oc1ccc(C(C)(C)O)cc1-c1cn(C)c(=O)cc1OC1CCC(C)(N2CCCC2=O)CC1` (stereo not drawn) [Example 34, 5-[2-(4-fluoro-2,6-dimethylphenoxy)-5-(2-hydroxypropan-2-yl)phenyl]-1-methyl-4-{[trans-4-methyl-4-(2-oxopyrrolidin-1-yl)cyclohexyl]oxy}pyridin-2(1H)-one], the inhibition constant (Ki) came out at 23.1 nM.

Compound `Cc1cccc(C)c1Oc1ccc(C(C)(C)O)cc1-c1cn(C)c(=O)cc1NC1CCN(S(C)(=O)=O)CC1` [Example 2, 5-[2-(2,6-dimethylphenoxy)-5-(2-hydroxypropan-2-yl)phenyl]-4-{[1-(methanesulfonyl)piperidin-4-yl]amino}-1-methylpyridin-2(1H)-one] gave a Ki of 6.13 nM. Compound `Cc1ccc(=O)n([C@H]2CC[C@H](Oc3cc(=O)n(C)cc3-c3cc(C(C)(C)O)ccc3Oc3c(C)cc(F)cc3C)CC2)n1` [Example 130, 2-[trans-4-({5-[2-(4-fluoro-2,6-dimethylphenoxy)-5-(2-hydroxypropan-2-yl)phenyl]-1-methyl-2-oxo-1,2-dihydropyridin-4-yl}oxy)cyclohexyl]-6-methylpyridazin-3(2H)-one] returned a Ki of 1.52 nM.

The compound `Cc1cc(F)cc(C)c1Oc1ccc(C(C)(C)O)cc1-c1cn(C)c(=O)cc1O[C@H]1CC[C@H](N2C(=O)NC3(CC3)C2=O)CC1` [Example 136, 6-[trans-4-({5-[2-(4-fluoro-2,6-dimethylphenoxy)-5-(2-hydroxypropan-2-yl)phenyl]-1-methyl-2-oxo-1,2-dihydropyridin-4-yl}oxy)cyclohexyl]-4,6-diazaspiro[2.4]heptane-5,7-dione] registered a Ki of 3.46 nM. `Cc1cc(F)cc(C)c1Oc1ccc(C(C)(C)O)cc1-c1cn(C)c(=O)cc1O[C@H]1CC[C@H](N2C(=O)CCC(C)(C)C2=O)CC1` [Example 89, 1-[trans-4-({5-[2-(4-fluoro-2,6-dimethylphenoxy)-5-(2-hydroxypropan-2-yl)phenyl]-1-methyl-2-oxo-1,2-dihydropyridin-4-yl}oxy)cyclohexyl]-3,3-dimethylpiperidine-2,6-dione] showed a Ki of 5.71 nM. `Cc1cc(F)cc(C)c1Oc1ccc(C(C)(C)O)cc1-c1cn(C)c(=O)cc1O[C@H]1CC[C@H](NC(=O)CC(C)(C)CO)CC1` [Example 118, N-[trans-4-({5-[2-(4-fluoro-2,6-dimethylphenoxy)-5-(2-hydroxypropan-2-yl)phenyl]-1-methyl-2-oxo-1,2-dihydropyridin-4-yl}oxy)cyclohexyl]-4-hydroxy-3,3-dimethylbutanamide] registered a Ki of 5.83 nM. `Cc1cc(F)cc(C)c1Oc1ccc(C(C)(C)O)cc1-c1cn(C)c(=O)cc1O[C@H]1CC[C@H](NC(=O)C(C)(C)C)CC1` [Example 57, N-[trans-4-({5-[2-(4-fluoro-2,6-dimethylphenoxy)-5-(2-hydroxypropan-2-yl)phenyl]-1-methyl-2-oxo-1,2-dihydropyridin-4-yl}oxy)cyclohexyl]-2,2-dimethylpropanamide] gave an inhibitory constant (Ki) of 1.83 nM. `CC(=O)N[C@H]1CC[C@H](Oc2cc(=O)n(C)cc2-c2cc(C(C)(C)O)cnc2Oc2c(C)cc(C(C)(C)O)cc2C)CC1` [Example 17, N-[trans-4-({5′-(2-hydroxypropan-2-yl)-2′-[4-(2-hydroxypropan-2-yl)-2,6-dimethylphenoxy]-1-methyl-6-oxo[1,6-dihydro[3,3′-bipyridine]]-4-yl}oxy)cyclohexyl]acetamide] had an inhibition constant (Ki) of 1.43 nM. Compound `Cc1cc(F)cc(C)c1Oc1ccc(C(C)(C)O)cc1-c1cn(C)c(=O)cc1O[C@H]1CC[C@H](N(C)C(=O)C(C)(C)C)CC1` [Example 59, N-[trans-4-({5-[2-(4-fluoro-2,6-dimethylphenoxy)-5-(2-hydroxypropan-2-yl)phenyl]-1-methyl-2-oxo-1,2-dihydropyridin-4-yl}oxy)cyclohexyl]-N,2,2-trimethylpropanamide] displayed an inhibition constant Ki of 3.09 nM. `Cc1cc(F)cc(C)c1Oc1ccc(C(C)(C)O)cc1-c1cn(C)c(=O)cc1O[C@H]1CC[C@H](N2C(=O)CCC2C)CC1` (relative stereo) [Example 42, 5-[2-(4-fluoro-2,6-dimethylphenoxy)-5-(2-hydroxypropan-2-yl)phenyl]-1-methyl-4-{[trans-4-(2-methyl-5-oxopyrrolidin-1-yl)cyclohexyl]oxy}pyridin-2(1H)-one] had an inhibition constant Ki of 1.77 nM.

`Cc1cc(F)cc(C)c1Oc1ccc(C(C)(C)O)cc1-c1cn(C)c(=O)cc1O[C@H]1CC[C@H](NNC(=O)OC(C)(C)C)CC1` [Example 106, tert-butyl 2-[trans-4-({5-[2-(4-fluoro-2,6-dimethylphenoxy)-5-(2-hydroxypropan-2-yl)phenyl]-1-methyl-2-oxo-1,2-dihydropyridin-4-yl}oxy)cyclohexyl]hydrazine-1-carboxylate] yielded an inhibitory constant (Ki) of 71.3 nM. In the case of `Cc1cc(F)cc(C)c1Oc1ccc(C(C)(C)O)cc1-c1cn(C)c(=O)cc1O[C@H]1CC[C@H](N2C(=O)C(C)(C)N(C)C2C)CC1` (relative stereo) [Example 134, 5-[2-(4-fluoro-2,6-dimethylphenoxy)-5-(2-hydroxypropan-2-yl)phenyl]-1-methyl-4-{[trans-4-(2,3,4,4-tetramethyl-5-oxoimidazolidin-1-yl)cyclohexyl]oxy}pyridin-2(1H)-one], the Ki amounted to 9.18 nM. In turn, `Cc1cc(F)cc(C)c1Oc1ccc(C(C)(C)O)cc1-c1cn(C)c(=O)cc1O[C@H]1CC[C@H](N2NCCC2=O)CC1` [Example 109, 5-[2-(4-fluoro-2,6-dimethylphenoxy)-5-(2-hydroxypropan-2-yl)phenyl]-1-methyl-4-{[trans-4-(5-oxopyrazolidin-1-yl)cyclohexyl]oxy}pyridin-2(1H)-one] showed a Ki of 9.01 nM. With `CC(=O)N([C@H](C)c1ccc(Oc2c(C)cccc2C)c(-c2cn(C)c(=O)cc2O[C@H]2CC[C@H](NC(=O)C3(C)CC3)CC2)c1)[C@@H](C)c1ccccc1` [Example 116, N-{trans-4-[(5-{5-[(1R)-1-{acetyl[(1S)-1-phenylethyl]amino}ethyl]-2-(2,6-dimethylphenoxy)phenyl}-1-methyl-2-oxo-1,2-dihydropyridin-4-yl)oxy]cyclohexyl}-1-methylcyclopropane-1-carboxamide], affinity was put at a Ki of 2.37 nM.

The compound `CNC(=O)[C@H]1CC[C@H](Oc2cc(=O)n(C)cc2-c2cc(C(C)(C)O)ccc2Oc2c(C)cc(F)cc2C)CC1` [Example 101, trans-4-({5-[2-(4-fluoro-2,6-dimethylphenoxy)-5-(2-hydroxypropan-2-yl)phenyl]-1-methyl-2-oxo-1,2-dihydropyridin-4-yl}oxy)-N-methylcyclohexane-1-carboxamide] registered a Ki of 10.1 nM. Compound `CNC(=O)N[C@H]1CC[C@H](Oc2cc(=O)n(C)cc2-c2cc(C(C)(C)O)ccc2Oc2c(C)cc(F)cc2C)CC1` [Example 128, N-[trans-4-({5-[2-(4-fluoro-2,6-dimethylphenoxy)-5-(2-hydroxypropan-2-yl)phenyl]-1-methyl-2-oxo-1,2-dihydropyridin-4-yl}oxy)cyclohexyl]-N′-methylurea] showed an inhibitory constant (Ki) of 6.01 nM.
